Source: ChEMBL document CHEMBL4888484, “Replenishing the malaria drug discovery pipeline: Screening and hit evaluation of the MMV Hit Generation Library 1 (HGL1) against asexual blood stage Plasmodium falciparum ,using a nano luciferase reporter read-out” (2022)
About 540 (0.36%) of roughly 150,000 compounds showed an effect of 50% or more. The list shows a part of the results.

system: Plasmodium falciparum; experiment: Primary screen in NF54 nanoGlo assay, in single point, at 2uM, 72h; a lower Z score goes with more inhibition; format: functional, Erythrocyte; details: timepoint 72 hour

SMILES	% Inhibition [%]	Z score
Cc1ccc(CNc2ncnc3[nH]ncc23)c(-n2cc(Cl)cn2)n1	12	-2.28
O=C(c1ccc(OCC(F)(F)F)nc1)N1CCC2(CC1)OCCO2	-46	5.44
CN1CC[C@H]2CC[C@@H](C1)N2c1nccc(C2CCCC2)n1	-16	1.5
CC(C)CC(=O)N1[C@H]2CC[C@@H]1c1cnc(-c3ccc(F)cc3)nc1C2	1	-0.08
Cc1ccc(OC(=O)Nc2ccc(Br)cc2Br)c(-n2nc3ccccc3n2)c1	1	-0.13
O=S1(=O)C[C@@H]2[C@H](C1)N(Cc1cccnc1)CCN2CC1CC1	-5	1.04
CN(C)c1nc(-c2cccc(C(=O)N[C@H]3COC[C@@H]3N3CCCC3)c2)nn1C	-10	1.94
Cc1ccc2c(c1)C[C@]1(CN2C)C(=O)N(c2cccc3ccccc23)C(=O)N=C1O	14	-1.7
OC(c1ccccc1)(c1ccccc1)[C@@H]1CCCCCN1	-16	2.4
Brc1cccc(C[C@H]2CCCN2)c1	15	-1.98
C[C@@H](Cn1cncn1)NCc1ccccn1	2	-0.16
Cc1noc(C)c1CN(C)[C@@H](C)Cc1cnccn1	-8	1.09
COc1ccc(S(=O)(=O)N2CC[C@@]3(C2)C(=O)N(C)c2ccc(OC)cc23)cc1	2	-0.22
CC[C@H](Oc1cc(C)c(Cl)c(C)c1)C(=O)N1CCC2(CC1)OCCO2	-5	0.5
NC(=O)c1cn(C2CN(CC3CCCCC3)C2)nn1	-4	0.75
CC(C)c1cc(C(=O)N2CC[C@H]3CC[C@@H](C2)N3C)nc2ncnn12	-19	2.59
Cn1cc(C(=O)N2C[C@H](O)[C@@H](F)C2)c2ccccc21	-13	1.21
Cc1cccc2c1c(-c1cccc(C(=O)N[C@H]3CN4CCC3CC4)c1)nn2C	13	-1.82
COc1ccccc1[C@H]1CN(C(=O)c2cc(=O)[nH]c(=O)[nH]2)[C@@H]2C3CCN(CC3)[C@H]12	-7	0.73
CCCOC[C@@H](N)Cc1cccc(Br)c1	-8	1.07
CN1CCC(N(C)c2ccccc2CN2CCC(C(C)(C)C)C(O)C2)CC1 (centres undefined)	11	-1.58
CCC(CC)c1cc([C@H]2CN3CC[C@H]2C[C@@H]3CNC(=O)Cc2cccs2)nc(-c2ccncc2)n1	36	-0.74
